Results on 43 compounds are retold here after paper PMC4336329 (PLoS ONE, 2015).

SMILES strings stand for the structures. Out of some 310,000 compounds screened, about 2,200 (0.71%) showed an effect of 50% or more. The effect is printed as a negative number. This is one part of the list.

The target in the assay is human ether-à-go-go-related gene (hERG) potassium channel (human, UniProt Q12809). Briefly: primary screen, population patch clamp on CHO cells stably expressing hERG.
Chain of human ether-à-go-go-related gene (hERG) potassium channel (Q12809 whole entry, looked up): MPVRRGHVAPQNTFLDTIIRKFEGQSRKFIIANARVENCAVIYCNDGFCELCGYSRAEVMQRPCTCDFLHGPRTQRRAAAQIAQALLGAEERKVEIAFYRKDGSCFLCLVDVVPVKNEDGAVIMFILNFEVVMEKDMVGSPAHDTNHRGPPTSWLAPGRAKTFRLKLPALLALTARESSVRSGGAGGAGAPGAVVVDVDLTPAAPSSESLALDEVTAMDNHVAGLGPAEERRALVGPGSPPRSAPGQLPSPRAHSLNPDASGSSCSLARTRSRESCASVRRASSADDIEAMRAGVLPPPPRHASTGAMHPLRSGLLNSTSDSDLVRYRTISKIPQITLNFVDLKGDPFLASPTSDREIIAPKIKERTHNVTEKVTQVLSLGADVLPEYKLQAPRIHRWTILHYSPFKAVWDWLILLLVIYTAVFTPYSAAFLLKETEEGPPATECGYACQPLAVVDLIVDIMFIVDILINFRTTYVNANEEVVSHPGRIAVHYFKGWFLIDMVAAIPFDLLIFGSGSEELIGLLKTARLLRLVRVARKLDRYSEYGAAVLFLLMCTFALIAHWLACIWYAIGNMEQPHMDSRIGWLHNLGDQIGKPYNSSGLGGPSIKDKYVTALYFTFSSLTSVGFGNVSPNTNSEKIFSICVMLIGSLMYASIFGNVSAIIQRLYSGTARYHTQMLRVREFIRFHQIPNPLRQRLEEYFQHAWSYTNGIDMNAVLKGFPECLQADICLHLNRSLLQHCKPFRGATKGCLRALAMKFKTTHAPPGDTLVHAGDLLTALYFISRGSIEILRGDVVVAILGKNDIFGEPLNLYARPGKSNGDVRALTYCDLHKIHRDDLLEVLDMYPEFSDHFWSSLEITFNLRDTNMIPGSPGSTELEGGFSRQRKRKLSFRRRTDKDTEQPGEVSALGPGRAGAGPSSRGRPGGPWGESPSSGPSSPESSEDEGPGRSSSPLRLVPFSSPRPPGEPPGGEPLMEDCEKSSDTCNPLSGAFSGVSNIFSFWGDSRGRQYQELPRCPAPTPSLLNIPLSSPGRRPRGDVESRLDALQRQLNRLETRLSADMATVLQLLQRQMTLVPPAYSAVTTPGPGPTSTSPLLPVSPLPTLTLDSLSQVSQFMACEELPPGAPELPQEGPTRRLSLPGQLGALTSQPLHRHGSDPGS
On to `Cc1ccc(NC(NC(=O)OCCn2c([N+](=O)[O-])cnc2C)C(Cl)(Cl)Cl)cc1` (stereo not shown), for which the “hERG current change (%, negative = inhibition) at 1uM” value came to 9.01%.

As to `C=CC(=O)NCC1OCCc2ccccc21` (stereo not shown), the “hERG current change (%, negative = inhibition) at 1uM” value was 14.2%. The same measure for `O=C(O)c1ccc(/C=N/N2CCN(c3ccccc3)CC2)cc1`: 8.93%. The same measure for `O=C(Cn1nnc(-c2ccccc2)n1)NNC(=O)c1cccc([N+](=O)[O-])c1`: 12.4%; for `Cc1ccc(OCC(=O)c2cc(C)n(Cc3cccs3)c2C)c([N+](=O)[O-])n1`: 12.9%; for `Cc1cc(C)c(OCC(O)CN2CCN(C(=O)c3ccccc3)CC2)c(C)c1.O=C(O)C(=O)O` (stereo not shown): -11.8%. Take `Cc1ccc(NC2=NC(c3ccc(O)cc3)n3c(nc(C)cc3=O)N2)cc1` (stereo not shown): the “hERG current change (%, negative = inhibition) at 1uM” value is 12.4%. The same measure for `Cc1ccc(-c2csc(NC(=O)C3=NN(c4ccccc4)C(=O)CC3)n2)cc1`: 5.88%; for `CCOCCc1nnc(NC(=O)C2CCN(C(=O)c3ccco3)CC2)s1`: 21.9%; for `O=C(NCCCSc1ccccc1)c1cc(Br)ccc1O`: 12.2%. The same measure for `O=C1NC[C@@H](Cc2ccc(O)cc2)N(CC2CCCCC2)C1=O`: 17.4%; for `COc1ccc(OC)c2sc(NC(=O)CCS(=O)(=O)c3ccccc3)nc12`: 16.8%; for `CCOC(=O)C1CCN(C(=O)c2cn(C)c(=O)c3cc(OC)c(OC)cc23)CC1`: 7.95%. As for `CCCc1nc(SCC(=O)NCC2CCCO2)c2c(=O)n(C)c(=O)n(C)c2n1` (stereo not shown), the “hERG current change (%, negative = inhibition) at 1uM” value is 11.6%. As to `CCCCNC(=O)[C@H](Cc1c[nH]c2ccccc12)NC(=O)c1ccccc1Cl`, the “hERG current change (%, negative = inhibition) at 1uM” value worked out at 5.34%. Then `COC(=O)C1SCCN1S(=O)(=O)c1ccc(Cl)cc1` (stereo not shown), with 2.67%. `CC1(c2ccccc2)CC(C)(C)N(C(=O)c2cc([N+](=O)[O-])cc([N+](=O)[O-])c2)c2ccccc21` (stereo not shown): the “hERG current change (%, negative = inhibition) at 1uM” value is 15.7%. The same measure for `CC(C)(C)NC(=O)CN(Cc1cccnc1)C(=O)c1csnn1`: 4.4%; for `CCOC(=O)COc1ccc(S(=O)(=O)NCc2cccnc2)cc1`: 5.98%; for `COc1ccc(C2CC(c3ccccc3)=NN2C(=O)COC(=O)C2(C)CC2(Cl)Cl)cc1` (stereo not shown): 13.5%.

On to `CCOc1ccc(CNc2ccc(S(N)(=O)=O)cc2)cc1`, for which the “hERG current change (%, negative = inhibition) at 1uM” value was determined as 9.95%. Then `N=c1ccccn1CC(O)COc1ccccc1` (stereo not shown), with 9.64%; and `O=C(Nc1ccc2nc3n(c(=O)c2c1)CCCC3)c1ccccc1[N+](=O)[O-]`, with 9.03%. As to `COc1ccccc1NC(=O)Cn1ccn(-c2cccc3ccccc23)c(=O)c1=O`, the “hERG current change (%, negative = inhibition) at 1uM” value was -5.69%.

Turning to `CCOC(=O)CSc1nc2c(sc(=S)n2-c2ccccc2)c(=O)[nH]1`, the “hERG current change (%, negative = inhibition) at 1uM” value is reported as -0.273%. The same measure for `CCn1cc(C(=O)N2CCOCC2)c(=O)c2cc(S(=O)(=O)N(C)C)ccc21`: 4.21%; for `O=c1c2ccccc2[nH]c(=S)n1CCN1CCCC1`: 1.44%. Then `COc1ccc(-c2cn(-c3ccc(Br)cc3)c3[n+]2CCS3)cc1.[Br-]`, with -16.9%; and `Cc1cc(O)ccc1NC(=O)CCN1C(=O)c2ccc([N+](=O)[O-])cc2C1=O`, with 12.6%. `Cc1ccc(NS(=O)(=O)c2ccc(C(=O)NCCCN3CCCC3=O)cc2)cc1C`: the “hERG current change (%, negative = inhibition) at 1uM” value is 16.4%. Turning to `Cc1ccccc1N1C(=O)Cc2ccccc2C1=O`, the “hERG current change (%, negative = inhibition) at 1uM” value was 12.8%.

Regarding `O=C(NN1C(=O)C2C3C=CC([C@H]4CC34)[C@@H]2C1=O)c1ccc(Br)cc1` (stereo partly shown), the “hERG current change (%, negative = inhibition) at 1uM” value is on record as 12.2%.

For `O=C(c1ccccc1)N1CCC(c2nc(-c3ccc(S(=O)(=O)N4CCOCC4)cc3)no2)CC1`, the “hERG current change (%, negative = inhibition) at 1uM” value is -2.24%. As to `CCc1nnc(NC(=O)CN2CCN(Cc3cccc(F)c3)CC2)s1`, the “hERG current change (%, negative = inhibition) at 1uM” value is 9.59%. Consider `COCc1cc(C)nc(SCC(=O)Oc2ccccc2)c1C#N`, for which the “hERG current change (%, negative = inhibition) at 1uM” value is recorded as 6.52%.

As for `CC(C)(C)C(=O)Nc1nc(C2CCCN2S(=O)(=O)c2ccc(Cl)cc2)cs1` (stereo not shown), the “hERG current change (%, negative = inhibition) at 1uM” value is recorded as 5.04%. Turning to `Cc1nc2ccc(NS(=O)(=O)c3ccc(F)cc3F)cc2s1`, the “hERG current change (%, negative = inhibition) at 1uM” value is listed as -14.3%. Then `CCOCCCNC(=O)c1ccc2c(c1)N(CC)C(=O)c1ccccc1S2=O` (stereo not shown), with 11.2%; and `O=C(Nc1c(C(=O)Nc2ccccc2)cnn1-c1ccccc1)c1ccco1`, with 7.39%; and `CC1(C)CC(=O)C(C(c2ccncc2)C2C(=O)CC(C)(C)CC2=O)C(=O)C1`, with 9.96%.

As to `CC1Sc2ccc(C(=O)Nc3cc(S(C)(=O)=O)ccc3Cl)cc2NC1=O` (stereo not shown), the “hERG current change (%, negative = inhibition) at 1uM” value turned out to be 6.25%.

`COc1ccccc1OCCNC(=O)CSC(=S)N1CCCC1`: the “hERG current change (%, negative = inhibition) at 1uM” value was 9.66%. On to `CCC1=C2CC[C@H]3C(=O)N(CC)C(=O)[C@H]3[C@H]2[C@@]2(Cc3ccccc3)C(=NCc3ccccc3)OC(=O)N2C1=O`, for which the “hERG current change (%, negative = inhibition) at 1uM” value turned out to be 7.2%.
